{"source": "paper PMC10700546", "about": "“Atg18 oligomer organization in assembled tubes and on lipid membrane scaffolds” (Nature Communications, 2023)", "binders": {"B1": {"name": "Autophagy-related protein 18 (Atg18), wildtype, P43601 1-500 (natural protein)", "chain": "MSDSSPTINFINFNQTGTCISLGTSKGFKIFNCEPFGKFYSEDSGGYAIVEMLFSTSLLALVGIGDQPALSPRRLRIINTKKHSIICEVTFPTSILSVKMNKSRLVVLLQEQIYIYDINTMRLLHTIETNPNPRGLMAMSPSVANSYLVYPSPPKVINSEIKAHATTNNITLSVGGNTETSFKRDQQDAGHSDISDLDQYSSFTKRDDADPTSSNGGNSSIIKNGDVIVFNLETLQPTMVIEAHKGEIAAMAISFDGTLMATASDKGTIIRVFDIETGDKIYQFRRGTYATRIYSISFSEDSQYLAVTGSSKTVHIFKLGHSMSNNKLDSDDSNMEEAAADDSSLDTTSIDALSDEENPTRLAREPYVDASRKTMGRMIRYSSQKLSRRAARTLGQIFPIKVTSLLESSRHFASLKLPVETNSHVMTISSIGSPIDIDTSEYPELFETGNSASTESYHEPVMKMVPIRVVSSDGYLYNFVMDPERGGDCLILSQYSILMD"}, "B2": {"name": "Atg18-FGGG (protein, UniProt P43601 1-500)", "chain": "B1 chain with R285G, R286G"}, "B3": {"name": "Autophagy-related protein 18 (Atg18), wildtype (protein, UniProt P43601 1-500)", "chain": "B1 chain"}}, "key": {"[1]": {"molecular_target": "T1, Autophagy-related protein 18 (Atg18), wildtype (Saccharomyces cerevisiae), P43601", "T1 chain": "B1 chain", "assay": "negative stain EM; Atg18 dialysed into low-salt tube buffer, tubes or pellet fractions imaged after 2% uranyl acetate staining; self-assembly into tubes; both purified", "conditions": "remark: other sources report otherwise"}, "[2]": {"molecular_target": "T1, Autophagy-related protein 18 (Atg18), …", "assay": "cryo-EM structure; cryo-electron tomography and subtomogram averaging (26 A); 3 uM Atg18-WT with LUVs (5% PI3,5P2, 95% DOPC) at 0.1 mg/ml; Atg18 dimers between two bilayers; both purified", "conditions": "remark: other sources report otherwise"}, "[3]": {"molecular_target": "T1, Autophagy-related protein 18 (Atg18), …", "assay": "cryo-EM structure; helical reconstruction of Atg18 tubes; 20 uM tube solution in tube buffer (20 mM HEPES, 100 mM KAc, 1 mM DTT, pH 7.2); self-assembly into a helical lattice; both purified", "conditions": "remark: other sources report otherwise"}, "[4]": {"molecular_target": "T1, Autophagy-related protein 18 (Atg18), …", "assay": "co-sedimentation; pelletation assay: 100 uM Atg18 dialysed into tube buffer (20 mM HEPES, 100 mM KAc, 1 mM DTT, pH 7.2), 120 min at 50,000 x g, 18 C; input, supernatant and pellet on SDS-PAGE; self-assembly into tubes; both purified", "conditions": "remark: other sources report otherwise"}, "[5]": {"molecular_target": "Atg18-FGGG (Saccharomyces cerevisiae) (UniProt P43601)", "assay": "negative stain EM; Atg18 dialysed into low-salt tube buffer, tubes or pellet fractions imaged after 2% uranyl acetate staining; self-assembly into tubes; both purified"}, "[6]": {"molecular_target": "Atg18-FGGG (Saccharomyces cerevisiae) (UniProt P43601)", "assay": "co-sedimentation; pelletation assay: 100 uM Atg18 dialysed into tube buffer (20 mM HEPES, 100 mM KAc, 1 mM DTT, pH 7.2), 120 min at 50,000 x g, 18 C; input, supernatant and pellet on SDS-PAGE; self-assembly into tubes; both purified"}, "[7]": {"molecular_target": "Autophagy-related protein 18 (Atg18), wildtype (Saccharomyces cerevisiae) (UniProt P43601)", "assay": "condition: only with 4x molar excess of diC8-PI3P, diC8-PI(3,5)P2 or diC8-PI(4,5)P2 added before the low-salt buffer change; negative stain EM; Atg18-WT with soluble diC8-PI3P, diC8-PI(3,5)P2 or diC8-PI(4,5)P2 in 4x molar excess, added in gel filtration buffer before dialysis into low-salt tube buffer; both purified"}}, "note": "Positions count from the first letter of the chain named. No constants are given. Whether binding was seen depends on the method and setting. Some results given as binding are weak or reduced against the parent protein; the word gives no strength. For some of these results: Sequences can lack the tags named with a protein."}
{"binder": "B1", "values": [{"measurement": "binding", "setting": "[1]", "value": "binds"}, {"measurement": "binding", "setting": "[2]", "value": "binds"}, {"measurement": "binding", "setting": "[3]", "value": "binds"}, {"measurement": "binding", "setting": "[4]", "value": "binds"}]}
{"binder": "B2", "values": [{"measurement": "binding", "setting": "[5]", "value": "no binding"}, {"measurement": "binding", "setting": "[6]", "value": "no binding (tested: 100 µM)"}]}
{"binder": "B3", "values": [{"measurement": "binding", "setting": "[7]", "value": "no binding"}]}
